B1: G-protein coupled receptor 143 (Homo sapiens), P51810 (parent)
chain: MASPRLGTFCCPTRDAATQLVLSFQPRAFHALCLGSGGLRLALGLLQLLPGRRPAGPGSPATSPPASVRILRAAAACDLLGCLGMVIRSTVWLGFPNFVDSVSDMNHTEIWPAAFCVGSAMWIQLLYSACFWWLFCYAVDAYLVIRRSAGLSTILLYHIMAWGLATLLCVEGAAMLYYPSVSRCERGLDHAIPHYVTMYLPLLLVLVANPILFQKTVTAVASLLKGRQGIYTENERRMGAVIKIRFFKIMLVLIICWLSNIINESLLFYLEMQTDINGGSLKPVRTAAKTTWFIMGILNPAQGFLLSLAFYGWTGCSLGFQSPRKEIQWESLTTSAAEGAHPSPLMPHENPASGKVSQVGGQTSDEALSMLSEGSDASTIEIHTASESCNKNEGDPALPTHGDL
partner: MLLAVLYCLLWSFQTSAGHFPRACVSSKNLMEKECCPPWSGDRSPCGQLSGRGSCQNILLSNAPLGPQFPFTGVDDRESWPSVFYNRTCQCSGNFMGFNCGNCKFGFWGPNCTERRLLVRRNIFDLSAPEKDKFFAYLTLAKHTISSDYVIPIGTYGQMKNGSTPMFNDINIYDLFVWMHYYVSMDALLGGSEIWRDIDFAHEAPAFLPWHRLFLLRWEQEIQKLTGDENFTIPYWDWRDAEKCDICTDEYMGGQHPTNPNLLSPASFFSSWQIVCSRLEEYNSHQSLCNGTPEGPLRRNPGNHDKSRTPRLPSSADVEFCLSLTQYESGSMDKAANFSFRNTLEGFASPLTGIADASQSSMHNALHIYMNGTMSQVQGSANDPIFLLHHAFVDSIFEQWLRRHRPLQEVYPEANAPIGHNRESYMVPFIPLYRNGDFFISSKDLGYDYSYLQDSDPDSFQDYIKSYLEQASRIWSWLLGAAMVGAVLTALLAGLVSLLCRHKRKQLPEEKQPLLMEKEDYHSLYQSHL
B2: G-protein coupled receptor 143 (Homo sapiens), P51810 (parent)
chain: B1 chain
partner: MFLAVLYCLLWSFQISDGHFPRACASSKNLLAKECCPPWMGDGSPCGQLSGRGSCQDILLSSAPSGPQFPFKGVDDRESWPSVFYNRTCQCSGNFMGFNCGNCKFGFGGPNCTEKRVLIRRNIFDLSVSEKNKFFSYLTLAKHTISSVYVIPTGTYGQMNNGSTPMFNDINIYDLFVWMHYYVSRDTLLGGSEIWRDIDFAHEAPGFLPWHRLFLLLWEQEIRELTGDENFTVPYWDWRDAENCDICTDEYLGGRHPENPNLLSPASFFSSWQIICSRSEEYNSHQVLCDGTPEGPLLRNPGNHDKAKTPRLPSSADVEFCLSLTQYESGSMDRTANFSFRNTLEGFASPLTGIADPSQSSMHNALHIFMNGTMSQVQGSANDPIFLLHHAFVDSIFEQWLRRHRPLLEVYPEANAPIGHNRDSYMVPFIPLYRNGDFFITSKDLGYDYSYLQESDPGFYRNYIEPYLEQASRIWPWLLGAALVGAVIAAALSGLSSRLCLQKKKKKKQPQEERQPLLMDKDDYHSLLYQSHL

Variants of: B1
Settings: with tyro_human TYR
With MASPRLGTFCCPTRDAATQLVLSFQPRAFHALCLGSGGLRLALGLLQLLPGRRPAGPGSPATSPPASVRILRAAAACDLLGCLGMVIRSTVWLGFPNFVDSVSDMNHTEIWPAAFCVGSAMWIQLLYSACFWWLFCYAVDAYLVIRRSAGLSTILLYHIMAWGLATLLCVEGAAMLYYPSVSRCERGLDHAIPHYVTMYLPLLLVLVANPILFQKTVTAVASAAKGRQGIYTENERRMGAVIKIRFFKIMLVLIICWLSNIINESLLFYLEMQTDINGGSLKPVRTAAKTTWFIMGILNPAQGFLLSLAFYGWTGCSLGFQSPRKEIQAASLTTSAAEGAHPSPLMPHENPASGKVSQVGGQTSDEALSMLSEGSDASTIEIHTASESCNKNEGDPALPTHGDL [L223A;L224A;W329A;E330A] the “effect of a mutation on the interaction” value was “with no effect”.

Variants of: B2
Settings: with tyro_mouse Tyr
With MASPRLGTFCCPTRDAATQLVLSFQPRAFHALCLGSGGLRLALGLLQLLPGRRPAGPGSPATSPPASVRILRAAAACDLLGCLGMVIRSTVWLGFPNFVDSVSDMNHTEIWPAAFCVGSAMWIQLLYSACFWWLFCYAVDAYLVIRRSAGLSTILLYHIMAWGLATLLCVEGAAMLYYPSVSRCERGLDHAIPHYVTMYLPLLLVLVANPILFQKTVTAVASAAKGRQGIYTENERRMGAVIKIRFFKIMLVLIICWLSNIINESLLFYLEMQTDINGGSLKPVRTAAKTTWFIMGILNPAQGFLLSLAFYGWTGCSLGFQSPRKEIQAASLTTSAAEGAHPSPLMPHENPASGKVSQVGGQTSDEALSMLSEGSDASTIEIHTASESCNKNEGDPALPTHGDL [L223A;L224A;W329A;E330A] the “effect of a mutation on the interaction” value was “with no effect”.

Reference: IntAct's records for PubMed 27720922
